The structures appear in SMILES notation. In all, about 310,000 compounds went through this assay and about 14,000 (4.5%) showed an effect of 50% or more. The effect is printed as a negative number. The list shows a part of the results.
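Further: peak tail current of the secondary pulse compared with the same well before compound.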

Chain of human ether-à-go-go-related gene (hERG) potassium channel (Q12809 whole entry, looked up): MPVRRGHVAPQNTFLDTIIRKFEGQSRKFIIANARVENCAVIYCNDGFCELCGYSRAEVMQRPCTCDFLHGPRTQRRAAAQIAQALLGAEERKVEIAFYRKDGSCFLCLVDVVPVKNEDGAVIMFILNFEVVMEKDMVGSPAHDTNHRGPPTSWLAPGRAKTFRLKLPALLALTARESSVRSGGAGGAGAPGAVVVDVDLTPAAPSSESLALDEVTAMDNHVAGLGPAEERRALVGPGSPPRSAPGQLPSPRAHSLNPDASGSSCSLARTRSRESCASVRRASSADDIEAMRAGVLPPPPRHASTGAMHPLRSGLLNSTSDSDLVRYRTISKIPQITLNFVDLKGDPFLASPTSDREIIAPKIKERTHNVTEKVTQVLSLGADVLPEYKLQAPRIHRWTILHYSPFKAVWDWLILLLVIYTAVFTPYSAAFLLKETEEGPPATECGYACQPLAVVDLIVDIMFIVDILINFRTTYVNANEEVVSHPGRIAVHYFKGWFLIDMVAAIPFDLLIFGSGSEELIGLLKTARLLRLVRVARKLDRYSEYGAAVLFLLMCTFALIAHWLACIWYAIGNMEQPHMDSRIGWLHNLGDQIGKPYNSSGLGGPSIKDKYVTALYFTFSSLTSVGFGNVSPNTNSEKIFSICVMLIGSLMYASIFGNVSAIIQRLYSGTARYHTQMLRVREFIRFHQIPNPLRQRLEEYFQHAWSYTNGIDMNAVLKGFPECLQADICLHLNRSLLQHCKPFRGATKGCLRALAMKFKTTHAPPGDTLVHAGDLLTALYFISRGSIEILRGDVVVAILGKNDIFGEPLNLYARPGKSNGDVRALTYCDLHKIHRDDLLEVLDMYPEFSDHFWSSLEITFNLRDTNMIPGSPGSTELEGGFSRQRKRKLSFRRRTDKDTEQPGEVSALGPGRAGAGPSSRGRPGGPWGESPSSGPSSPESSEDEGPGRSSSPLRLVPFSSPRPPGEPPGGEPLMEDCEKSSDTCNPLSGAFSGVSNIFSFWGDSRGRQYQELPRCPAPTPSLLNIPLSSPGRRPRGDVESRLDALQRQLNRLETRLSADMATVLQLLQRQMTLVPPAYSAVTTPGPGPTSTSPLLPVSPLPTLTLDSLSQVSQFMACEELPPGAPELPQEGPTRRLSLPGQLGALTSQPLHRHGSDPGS

The assay addresses human ether-à-go-go-related gene (hERG) potassium channel (human, UniProt Q12809). As to the kind of experiment: primary screen, population patch clamp on CHO cells stably expressing hERG.
Take `O=C(CSc1cccc[n+]1[O-])NC(=O)c1ccc(OC(F)F)cc1`: the “hERG current change (%, negative = inhibition) at 10uM” value was -2.15%.
With `O=C(CN1CCOc2ccccc21)NC1CC1` the figure was -4.43%; with `CC(CCc1ccccc1)NC(=O)/C=C/c1ccccc1` (centres unmarked), -31.2%.
With `CSc1nc(N)c(C(=O)Nc2ccc([N+](=O)[O-])cc2)s1` the figure was -12.3%.
`O=C(O)C1CCCCC1C(=O)NCCc1ccc(F)cc1` (centres unmarked): the “hERG current change (%, negative = inhibition) at 10uM” value worked out at 13.8%.
In the case of `C/C=C/C=C/C(=O)[C@@H]1[C@@H]([C@]2(C)OC(=O)C(C)=C2O)[C@H]2/C(=C(O)/C=C/C=C/C)C(=O)[C@]1(C)C(=O)C2(C)O` (some centres unmarked) it was 1.28%; in that of `CC1=CCC2C(=O)N(c3ccccc3OC(=O)c3ccccc3F)C(=O)C2C1` (centres unmarked), -9.24%; in that of `CC(O)Cc1cn(CC(=O)N2CCNCC2)nn1.Cl` (centres unmarked), 11.7%.
In the case of `CC(=O)Nc1nnc(SCc2ccc(F)cc2)s1` it was 10.4%.
In the case of `Cc1ccc(/C=C2\SC(=S)N(CCCC(=O)Nc3nccs3)C2=O)cc1`, the “hERG current change (%, negative = inhibition) at 10uM” value stood at 15.7%.
In the case of `CCOc1ccccc1CNC(=O)c1nn(C)c2c1CS(=O)(=O)c1ccccc1-2` it was -13.4%.
With `Cc1cccc(-c2cc(=O)c(C(=O)O)cn2-c2ccc(F)cc2F)c1` the figure was 3.55%; with `Fc1ccc(OCc2cc(-c3ccccc3)no2)cc1`, 27.2%; with `CCN(C(=O)COC(=O)CSc1ccc(F)cc1)c1c(N)n(Cc2ccccc2)c(=O)[nH]c1=O`, 10.9%.
As for `N#Cc1cccc(C#N)c1Oc1ccc(N)cc1`, the “hERG current change (%, negative = inhibition) at 10uM” value worked out at 4.37%.
With `CCOc1ccc(CCNC(=O)COC(=O)CSc2ccccc2C)cc1OCC` the figure was -7.76%; with `COc1ccc(NC(=S)NCCSc2ccc(Cl)cc2)c(OC)c1`, 0.861%; with `O=C(Nc1cccc(C(F)(F)F)c1)/C(=C/c1ccco1)NC(=O)c1cccs1`, -28.4%.
In the case of `Cc1ccc(S(=O)(=O)N(C)C)cc1NC(=O)C(C)OC(=O)c1ccc2c(c1)OCCO2` (centres unmarked) it was 0.0881%.
With `N#C/C(=C/c1cc(Br)cs1)C(=O)NCC1CCCO1` (centres unmarked) the figure was -14.8%; with `CC1=C(C(=O)OCc2ccc([N+](=O)[O-])cc2)N2C(=O)C(NC(=O)Cc3ccccc3)C2SC1` (centres unmarked), 17.9%; with `CCOc1ccc2nc(SCC)[nH]c2c1.Cl`, 2.89%.
Consider `CN1CCN(c2ccc(S(=O)(=O)N3CCCCC3)cc2NC(=O)c2ccc3ccccc3c2)CC1`, for which the “hERG current change (%, negative = inhibition) at 10uM” value is reported as -40.4%.
Turning to `CCC12CN3CC(CC)(CN(C1)C3c1ccc([N+](=O)[O-])o1)C2=O` (centres unmarked), the “hERG current change (%, negative = inhibition) at 10uM” value was -8.69%.
With `CC(C)(C)OC(=O)NCCCC1=CC2=CC(=O)C(C)(OC(=O)c3ccc(Cl)nc3)C(=O)C2=CO1` (centres unmarked) the figure was 4.94%.
With `Cn1cccc1C(C#N)c1ccccc1C#N` (centres unmarked) the figure was 9.27%; with `COc1ccc(Cn2c(SCC#N)nc3ccc(N4CCOCC4)cc3c2=O)cc1`, 8.96%; with `CCn1nnnc1NC(=O)c1cccc(OC)c1`, 12.3%.
In the case of `O=C(O)COc1ccc(Br)cc1/C=N\Nc1ccccn1` it was 15.2%.
Consider `CCOC(=O)CN1C(=O)C(CC)Oc2ccccc21` (centres unmarked), for which the “hERG current change (%, negative = inhibition) at 10uM” value is listed as -4.1%.
On to `COc1ccc(Cc2nnc(SCC(=O)Nc3ccc(C)cc3C)[nH]c2=O)cc1`, for which the “hERG current change (%, negative = inhibition) at 10uM” value is -16.8%.
In the case of `Cc1oc2cc(O)ccc2c(=O)c1-c1ccccc1`, the “hERG current change (%, negative = inhibition) at 10uM” value is -4.39%.
Take `O=C(c1ccco1)N1CCN(Cc2cc(=O)c(OCc3cccc(Cl)c3)co2)CC1`: the “hERG current change (%, negative = inhibition) at 10uM” value is recorded as -74.7%.
In the case of `NC(=O)C(c1ccc(Cl)cc1)c1ccc(Sc2ccc(Cl)cc2)nn1` (centres unmarked) it was -9.96%.
Regarding `O=C(CNCc1ccccc1)Nc1ccc(F)cc1`, the “hERG current change (%, negative = inhibition) at 10uM” value is -4.2%.
With `O=C(O)c1ccc(CSc2nc3ccccc3c(=O)n2-c2ccccc2)cc1` the figure was 5.27%; with `CCOC(=O)c1nn(-c2ccc(F)cc2)c(=O)c2c(N)scc12`, 6.57%.
With `O=C(CSc1nnc(COc2ccccc2)o1)N1CCCCC1` the figure was 16.9%.
With `CC1CCN(C(=O)C2CCN(CCCc3ccccc3)CC2)CC1.O=C(O)C(=O)O` the figure was -62.3%; with `Cc1nnc(N/N=C/c2ccco2)n1N`, 10.3%.
Regarding `O=C(Cn1ncc2c(=O)oc3ccccc3c21)N(Cc1ccco1)C1CCCCC1`, the “hERG current change (%, negative = inhibition) at 10uM” value is -42.7%.
On to `COc1ccc(NC(=O)CSc2ccccn2)cc1OC`, for which the “hERG current change (%, negative = inhibition) at 10uM” value turned out to be 11.9%.
In the case of `CC(NC(=O)c1ccc(F)cc1)C(=O)NC1=NCCS1` (centres unmarked) it was 24.2%.
With `CCOc1ccccc1CN1CCN(Cc2cc(=O)c3ccccc3[nH]2)CC1CCO` (centres unmarked) the figure was -66.6%; with `COc1ccc(CNc2nc3nc(C)c(Cl)c(=O)n3[nH]2)cc1`, 13.2%.
In the case of `COc1ccc([C@@H]2[C@@H]3C(=O)N(C(C)(C)C)C(=O)[C@@H]3[C@]3(Cc4ccccc4)C(=O)N(c4cccc(F)c4)C(=O)N23)cc1` it was 1.73%; in that of `COc1cc(OC)c(C(=O)Nc2ccncc2)cc1OC`, 7.83%.
With `O=c1c2ccccc2nc2n1CCCCN2`, the “hERG current change (%, negative = inhibition) at 10uM” value turned out to be 17.1%.
In the case of `COc1ccc(/C=C2/SC(=S)N(NS(=O)(=O)c3ccc(C)cc3)C2=O)cc1` it was 27.9%.
With `COC(=O)c1sc(S(=O)(=O)N2CCCCC2)c(C(=O)OC)c1C` the figure was -12%.
With `CC(C)c1ccccc1OCC(O)CN1CCN(S(=O)(=O)c2ccc([N+](=O)[O-])cc2)CC1.O=C(O)C(=O)O` (centres unmarked) the figure was -11.1%; with `COCCn1c(SCC(=O)NCCc2ccccc2)nnc1-c1ccco1`, -14.8%; with `COc1cc(C)c(CNc2cc(C)cc(C)c2)cc1C`, -0.483%.
Take `CC(C)(C)c1cccc(P(=O)(c2ccccc2)c2ccccc2)c1O`: the “hERG current change (%, negative = inhibition) at 10uM” value is given as 10.2%.
In the case of `O=C1/C(=C/c2cccnc2)Oc2cc(OS(=O)(=O)c3ccccc3)ccc21` it was -4.54%.
As to `COc1ccc(-c2c(C)n([O-])c3c([n+]2=O)CCCC3)cc1OC`, the “hERG current change (%, negative = inhibition) at 10uM” value was determined as 24.2%.
